According to the supplement of paper PMC11417369:
This is one part of the list.

Test system: PF3D7_0420300 AP2 domain 1 (GST-tagged)
Experiment: gcPBM binding intensity (ln(normalized median fluorescence intensity)); higher = stronger DNA binding
In short: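 In this array assay, P. falciparum DNA-binding domains with a GST tag, expressed in E. coli, were applied for 1 h to primer-extended double-stranded 36-bp intergenic genomic probes and negative controls on an Agilent 4 × 180k array. Bound protein was visualised with Alexa488 anti-GST antibody at 488 nm. Binding intensity is the highest Masliner-normalised natural-log median intensity across replicate spots of either probe orientation.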

Sequence	gcPBM binding intensity (ln)
AAACATATATATATTATATATATATATATATATATG [GTGCAC_negctrl_site182]	9.02
TAACATATAATATTCACACACATATATATATTATAT [CACACA_site988]	9.61
TGTAGGTATTATTATACACACATAAAAAAAAAAAAA [CACACA_site3598]	9.36
TAAAATATTATAAAATGTACAAAACATATAAATATA [XGTACX_site5315]	9.29
TATTATTATCTTACCACACACAATGTACGAAAAGAT [CACACA_site352]	9.61
GTACAAATGTTGTGTATATATACACACATACATATA [XGTACX_negctrl_site276]	9.49
AACTTACTTGGACATACACACATATAGATTTATATA [CACACA_site7412]	9.72
ATGTAGTTTTATCAGTGTACAAGTATTTTATCACAT [XGTACX_site8958]	9.4
TTATTTATAAATATTAATTTTTTTTTTTTTTTTTTT [XGTACX_negctrl_site105]	8.81
TTTTATGTTTCAAAATGTACATTAAAATATACCATA [XGTACX_site1713]	9.01
AAAATATATATATATATATATATATGTATACTCCTA [XGTACX_negctrl_site312]	9.19
CATATGCATACTATACGTACATATGTATATAATATA [XGTACX_site7738]	9.18
ATATATATATTTTTTAAACACACACCGAAATATTTG [CACACA_site8937]	9.64
TTAATTAAAACGAATACACACATAAATATATAAAAG [CACACA_site1254]	9.84
TTTTATTATTGAATACTAGTATATATAATATGAAGA [CACACA_negctrl_site910]	8.99
AATATAATATAATGCACACATAAAAAAAAAATCAAA [CACACA_site122]	9.62
TTTTTATATAACCTTCTTAATTCTTTTTTTTTTTTT [XGTACX_negctrl_site591]	9.2
AAAACAAAATTATGAACATGCAAGGTAAAATTGTAA [TGCATGCA_site775]	9.65
TATGATGATATAAAAACACACACATATAATATAATA [CACACA_site8321]	9.8

Sequence	gcPBM binding intensity (ln)
TTAAAGCTTACATATACACACATACATAAATTCATA [CACACA_site8785]	9.59
TTTTGATCATCCAAAATATCTTCATCTGAACTACTA [CACACA_negctrl_site939]	9.08
GTAAAATAAAATATATGTACATATGTATATGAGGTA [XGTACX_site3743]	9.5
TACCCTGATCGGCATGCATGTAAGTAACAAATATAT [TGCATGCA_site153]	9.22
ATTCAAACAAATTAATGTACATATATATAAGATATT [XGTACX_site1531]	9.23
ATTTAGAAATATATTTGTACATATATATATATATAT [XGTACX_site7129]	9.15
CTACATATTAATATATGTACATATTAATATATCTAA [XGTACX_site7118]	8.98
ATAAAAAGAAAAAAGGGTACACTATACTATTTAAAA [XGTACX_site4467]	9.34
ATATATACATATAAATGTACATAATTATTATGCACA [XGTACX_site1261]	9.15
TGTTGATAAAAAATAAAAAATAAAAAAATAAAATAT [TGCATGCA_negctrl_site559]	9.35
TATATATATATGTGCACACATAATAAAAAAAAAAAT [CACACA_site3831]	9.7
TTTTATTTTATTCTTAAATAAGTATTATAAAATATG [XGTACX_negctrl_site201]	8.83
TATAAAGCATATTAAAGTACTTATTTTCCTTTTTCT [XGTACX_site8892]	9.1
TTATTTGAACAATATGCACACATTTTATTTATTTTA [CACACA_site3420]	9.46
TTAATGTTGTATGGTTGTACAATAAGCCCCTTTTAA [XGTACX_site2484]	9.07
CAAAATATTTATATCACACATATAAATAAAAATAAA [CACACA_site6028]	9.19
ATTAACATTTTCGTATGTACATATATAATATATGTT [XGTACX_site7184]	9.4
AATAAAAATAAAAATTGTACACTTTTTTAATATTTA [XGTACX_site892]	9.01
ATGTTTATTTATTTATGTACTTATATATTTATATAT [XGTACX_site7924]	9.58

Sequence	gcPBM binding intensity (ln)
TTTCCAAATACAACTACACACAAACAAAAATTATAT [CACACA_site4641]	9.79
AATGTGCACACGCGTACACACAAAAAAAGAAAAAAA [CACACA_site7031]	9.62
TATTATTTGAGTAGTTGTACTCATTAATATATAAAA [XGTACX_site3468]	8.9
TATTAATTTCACCTTTCACATATGGAAAAAAAAAAA [CACACA_negctrl_site1243]	8.87
ATTAAATCCGCACGCACACACACATATTAATAAAAA [CACACA_site3992]	9.93
TAAAAAAGAAAATATATACACACCAAAAAAAAAAAA [CACACA_site3146]	9.66
AAACAAAAAAATTGAAATAAAATGAAGTAAATGAAC [TGCATGCA_negctrl_site129]	9.7
ACATGTCTTAAAAGACGTACATATAAAAGAACCCTA [XGTACX_site8940]	9.2
AATATTAAAGAATAATGTACAAAATAAAAGCAAAGA [XGTACX_site3550]	9.86
TTATTTTTTAAAAGTAGTACAAATTTTTATAGAAAA [XGTACX_site7407]	8.46
ATTCCTTGGTTGTATAGTACTTTGGTTAAACATAAA [XGTACX_site6967]	9.37
CAATATTTGTTATGGGTGCAAACCGCATATATATAA [GTGCAC_site9543]	9.08
TGTATATATTATATTTGTACATATAAAACTATATGT [XGTACX_site4782]	9.25
TATCTCATAGTATACACACACACACGCGCACATATA [CACACA_site6917]	10.3
TTTCGAAAAACAACAAGAAAAAAAAAAAAAAAAAAA [XGTACX_negctrl_site449]	8.34
TTAAATATATGTAATACGCACACTTAATATTTTGAG [CACACA_site4170]	9.24
TTTTGGTGGGTTACAAGTACTCAAAATGGATTGTTA [XGTACX_site1951]	9.18
AAAAAAAAAAAAAAAACATGCAATAAAGTGTGCGTA [TGCATGCA_site982]	9.46
